Source: patent US11407811B2, “Fusion protein, preparation method therefor and use thereof” (JIANGSU RONGTAI BIOTECH CO., LTD., priority 2017, dated 2022)

B1: Protein I: IgG1-Fc linked to antiangiogenesis polypeptide EDSM-Y via a flexible linker; SEQ ID NO: 15 (protein)
chain: [sequence of human IgG1 Fc not given]GGGGSGGGGSGGGGSFQPVLHLVALNSPLSGGMRGIRGADFQCFQQARAVGLAGTFRAGGGGRGD
B2: Protein III: mIgG4-Fc linked to antiangiogenesis polypeptide EDSM-Y via a flexible linker; SEQ ID NO: 19 (protein)
chain: [sequence of human IgG4 Fc with S228P F234A L235A (EU numbers) and a few adjoining residues not given]GGGGSGGGGSGGGGSFQPVLHLVALNSPLSGGMRGIRGADFQCFQQARAVGLAGTFRAGGGGRGD

Experiments:
[1] = test system: neovascularization in premature rat retinopathy model; experiment: Neovascularization in premature rat retinopathy model (fluctuating oxygen-induced); format: in vivo; conditions: for Nucleus number (nucleus count of vascular endothelial cells): 100 μg intravitreal injection on day 7, counted on day 14, per section per eyeball; for nucleus counts of retinal vascular endothelial cells: intravitreal injection, dose of 100, day 14, oxygen model group 27.452±2.110
Method: A fluctuating oxygen-induced animal model was adopted, and newborn rats (within 12 hours) spontaneously delivered on the same day were randomly divided into three groups: an oxygen model group, an oxygen treatment group, and a normal control group. The oxygen model was subdivided into three model subgroups, which were placed in a semi-closed oxygen chamber made of plexiglass together with the treatment group. The medical oxygen was introduced into the chamber, and the oxygen concentration was adjusted to 80%±2% with an oxygen meter. After 24 hours, nitrogen gas was introduced into the oxygen chamber, and then the oxygen concentration was rapidly adjusted to 10%±2% and maintained for 24 hours. The operation was repeated, the oxygen concentration in the oxygen chamber was maintained to be alternated between 80% and 10% every 24 hours for 7 days, and then the rats were transferred to the air and fed. The oxygen concentration was monitored 8 times a day, and the ambient temperature in the chamber was controlled to 23° C.±2° C. The litter was replaced, food was added, water was changed, and mother rat was replaced once. The normal control group was placed in an animal house feeding environment.
The oxygen treatment group was divided into two sub-groups. On day 7 of modeling, the administration was performed via intravitreal injection, in which the fusion protein I, protein II, protein III, protein IV, and protein V were administered at a dose of 100 respectively. The oxygen model group and the control group were given only physiological saline for one week.
On day 14, after the rats was sacrificed with ether anesthesia, the eyeballs were removed and fixed in a 40 g/L paraformaldehyde solution for 24 hours. The eyeballs were dehydrated with gradient alcohols and hyalinized with xylene. After being immersed in wax, the eyeballs were continuously sectioned to a thickness of 4 avoiding the surrounding of the optic disc as much as possible. The sections were parallel to the sagittal plane of the cornea to the optic disc. 10 sections were randomly selected from each eyeball to be stained with hematoxylin and eosin, and the nucleus of vascular endothelial cells that broke through the inner limiting membrane of the retina was counted (only the nucleus of vascular endothelial cells closely related to the inner limiting membrane were counted), and the average number of cells per section per eyeball was counted.

liver cancer cell Hep-G2 = experiment: MTT assay, proliferation of liver cancer cell Hep-G2; format: cell-based; conditions: for inhibitory effect on liver cancer cell Hep-G2: in words
Method: The MTT assay was used to detect the inhibitory effect of the integrin blocker fusion protein obtained in Example 1 on the proliferation of various tumor cells, including melanoma cell B16F10, gastric cancer cell MGC-803, lung cancer cell A549, liver cancer cell Hep-G2, breast cancer cell MDA-MB-231, colon cancer cell HCT-116, human glioma U87, and cervical cancer cell Hela.
The tumor cells were cultured in a 5% CO2 incubator at 37° C. to a density of 90% or more, and collected by trypsinization. The cells were resuspended in the culture liquid and counted under a microscope. The cell concentration was adjusted to 3.0×10^4 cells/mL. The cell suspension was inoculated into a 96-well plate at 100 μL per well and cultured overnight in a 5% CO2 incubator at 37° C. […] After the cells were fully adhered, each dilution was added to a 96-well plate at 100 μL per well, respectively. […] 20 μL of 5 mg/mL MTT was added to each well of a 96-well plate, and incubation was continued for 4 hours. The medium was aspirated and 100 μL of DMSO per well were added to dissolve. The absorbance was measured at 570 nm with a microplate reader with a reference wavelength of 630 nm, and the proliferation inhibition (PI) was calculated. The formula is as follows: […]
where Ntest is the OD value of the test group and Ncontrol is the OD value of the blank control group.
The test was repeated 5 times independently. The results obtained from the test were calculated as mean±SD, and statistical t-test was performed. P<0.05 was considered as a significant difference, and P<0.01 was considered as an extremely significant difference.

[2] = test system: toe swelling in rat induced by carrageenan; experiment: Acute inflammation of toe swelling in rat induced by carrageenan; format: in vivo; conditions: for Swelling degree 1 h: 1 h after carrageenan; for Swelling degree 1 h / Swelling degree 3 h / Swelling degree 5 h / Swelling degree 7 h: rat foot; for Swelling degree 3 h: 3 h after carrageenan; for Swelling degree 5 h: 5 h after carrageenan; for Swelling degree 7 h: 7 h after carrageenan
Method: 80 SD rats were randomly divided into 8 groups with 10 mice for each group. […] The drug was administered once by injection, and the model group was given an equal volume of physiological saline and fed normally. On the third day, 0.1 mL of 1% carrageenan was injected subcutaneously into the right hind toes of the rats to induce inflammation. The foot volume was measured at 1 h, 3 h, 5 h, and 7 h after inflammation. The swelling degree of the foot was calculated according to the following formula: the swelling degree of the foot (mL)=the volume of the foot after inflammation—the volume before inflammation. The number of milliliters of spilled liquid was recorded (method: the protruding point of the right joint was circled with a ballpoint pen and used as a measurement mark, and the right hind feet of the rat were sequentially placed in the volume measuring device, so that the hind limbs were exposed outside the cylinder, and the depth of the immersion was limited to the overlap of the circle and the liquid level. After the foot entered the liquid, the liquid level was raised, and the volume of the spilled liquid was the volume of the right hind foot of the rat, and the normal volume of the right hind foot of each rat is sequentially determined).

[3] = test system: iris neovascularization in rabbits; experiment: Iris neovascularization in rabbits; format: in vivo, rabbit; conditions: 128 μg, intravitreal injection once every 5 days for 2 weeks
Method: The argon ion laser at 577 nm was used to occlude the major branch vein of rabbit retina, and a success venous occlusion was confirmed by fundus fluorescein angiography (FFA).
9 eyes successful in modeling were randomly divided into […]. They were labeled as a negative control group, and fusion protein I, protein II, protein III, protein IV and protein V treatment groups, respectively, which were respectively given physiological saline, 128 μg of fusion protein I, 128 μg of protein II, 128 μg of protein III, 128 μg of protein IV and 128 μg of protein V via intravitreal injection once every 5 days for 2 weeks. The observation was performed with an optical and electron microscope on the third week.

| Molecule | Nucleus number (nucleus count of vascular endothelial cells) [1] | nucleus counts of retinal vascular endothelial cells [1] | A570 nm/A630 nm (liver cancer cell Hep-G2; dose 1 μg/mL) | PI (%) (liver cancer cell Hep-G2; dose 1 μg/mL) | A570 nm/A630 nm (liver cancer cell Hep-G2; dose 2 μg/mL) | PI (%) (liver cancer cell Hep-G2; dose 2 μg/mL) | A570 nm/A630 nm (liver cancer cell Hep-G2; dose 4 μg/mL) | PI (%) (liver cancer cell Hep-G2; dose 4 μg/mL) | A570 nm/A630 nm (liver cancer cell Hep-G2; dose 8 μg/mL) | PI (%) (liver cancer cell Hep-G2; dose 8 μg/mL) | A570 nm/A630 nm (liver cancer cell Hep-G2; dose 16 μg/mL) | PI (%) (liver cancer cell Hep-G2; dose 16 μg/mL) | A570 nm/A630 nm (liver cancer cell Hep-G2; dose 32 μg/mL) | PI (%) (liver cancer cell Hep-G2; dose 32 μg/mL) | A570 nm/A630 nm (liver cancer cell Hep-G2; dose 64 μg/mL) | PI (%) (liver cancer cell Hep-G2; dose 64 μg/mL) | A570 nm/A630 nm (liver cancer cell Hep-G2; dose 128 μg/mL) | PI (%) (liver cancer cell Hep-G2; dose 128 μg/mL) | A570 nm/A630 nm (liver cancer cell Hep-G2; dose 256 μg/mL) | PI (%) (liver cancer cell Hep-G2; dose 256 μg/mL) | further results |
| --- | --- | --- | --- | --- | --- | --- | --- | --- | --- | --- | --- | --- | --- | --- | --- | --- | --- | --- | --- | --- | --- |
| B1 | 6.502 ± 2.011 | 6.502±2.011 | 0.6669 ± 0.0428 | 2.61% | 0.6009 ± 0.0362 | 12.25% | 0.5879 ± 0.0404 | 14.15% | 0.5555 ± 0.0373 | 18.88% | 0.5220 ± 0.0259 | 23.77% | 0.4862 ± 0.0330 | 29.00% | 0.4397 ± 0.0327 | 35.79% | 0.3836 ± 0.0218 | 43.98% | 0.3223 ± 0.0233 | 52.94% | inhibitory effect on liver cancer cell Hep-G2 (liver cancer cell Hep-G2): a certain inhibitory effect; Swelling degree 1 h ([2]; 8 mg/kg): 0.26 ± 0.15 mL; Swelling degree 3 h ([2]; 8 mg/kg): 0.33 ± 0.12 mL; Swelling degree 5 h ([2]; 8 mg/kg): 0.42 ± 0.14 mL; Swelling degree 7 h ([2]; 8 mg/kg): 0.36 ± 0.11 mL; Swelling degree 1 h ([2]; 32 mg/kg): 0.22 ± 0.19 mL; Swelling degree 3 h ([2]; 32 mg/kg): 0.35 ± 0.17 mL; Swelling degree 5 h ([2]; 32 mg/kg): 0.31 ± 0.15 mL; Swelling degree 7 h ([2]; 32 mg/kg): 0.37 ± 0.18 mL; Swelling degree 1 h ([2]; 128 mg/kg): 0.27 ± 0.12 mL; Swelling degree 3 h ([2]; 128 mg/kg): 0.38 ± 0.16 mL; Swelling degree 5 h ([2]; 128 mg/kg): 0.34 ± 0.14 mL; Swelling degree 7 h ([2]; 128 mg/kg): 0.43 ± 0.16 mL; inhibition of toe swelling induced by carrageenan ([2]; high doses): could significantly inhibit toe swelling; inhibition of toe swelling induced by carrageenan ([2]; low dose): not significant; effect on iris neovascularization [3]: could inhibit neovascularization and regress the formed blood vessels |
| B2 | 6.471 ± 2.017 | 6.471±2.017 | 0.6726 ± 0.0335 | 1.78% | 0.6111 ± 0.0287 | 10.76% | 0.5862 ± 0.0275 | 14.40% | 0.5586 ± 0.0105 | 18.43% | 0.5102 ± 0.0214 | 25.50% | 0.4756 ± 0.0245 | 30.55% | 0.4213 ± 0.0219 | 38.48% | 0.3786 ± 0.0214 | 44.71% | 0.3259 ± 0.0194 | 52.41% | inhibitory effect on liver cancer cell Hep-G2 (liver cancer cell Hep-G2): a certain inhibitory effect; Swelling degree 1 h ([2]; 8 mg/kg): 0.24 ± 0.04 mL; Swelling degree 3 h ([2]; 8 mg/kg): 0.37 ± 0.16 mL; Swelling degree 5 h ([2]; 8 mg/kg): 0.35 ± 0.07 mL; Swelling degree 7 h ([2]; 8 mg/kg): 0.41 ± 0.18 mL; Swelling degree 1 h ([2]; 32 mg/kg): 0.28 ± 0.17 mL; Swelling degree 3 h ([2]; 32 mg/kg): 0.31 ± 0.22 mL; Swelling degree 5 h ([2]; 32 mg/kg): 0.37 ± 0.14 mL; Swelling degree 7 h ([2]; 32 mg/kg): 0.39 ± 0.12 mL; Swelling degree 1 h ([2]; 128 mg/kg): 0.24 ± 0.12 mL; Swelling degree 3 h ([2]; 128 mg/kg): 0.36 ± 0.11 mL; Swelling degree 5 h ([2]; 128 mg/kg): 0.40 ± 0.10 mL; Swelling degree 7 h ([2]; 128 mg/kg): 0.43 ± 0.18 mL; inhibition of toe swelling induced by carrageenan ([2]; high doses): could significantly inhibit toe swelling; inhibition of toe swelling induced by carrageenan ([2]; low dose): not significant; effect on iris neovascularization [3]: could inhibit neovascularization and regress the formed blood vessels |
